# In PubChem BioAssay AID485294 (National Center for Advancing Translational Sciences (NCATS), 2010):
# The whole screen tested about 370,000 compounds, of which about 150 (0.041%) were called active. Inconclusive means that the source gave no clear call. Such entries were picked first, then a sample of the others. The call rests on the fitted dose curve; in most records, active means well fitted inhibition curve with a large enough effect; inconclusive means small, poorly fitted or top-dose-only effect; inactive means flat fitted curve, though single readings scatter. No potency is given beside an inconclusive call; the fits are too rough.
# Molecular target: Beta-lactamase (Escherichia coli (strain K12)) (UniProt P00811)
# Test: qHTS Inhibitors of AmpC Beta-Lactamase (assay with detergent); further: nearly all actives have a fitted effect of over 25% in size
# Details: AmpC hydrolysis of nitrocefin, absorbance 480 nm, 0.01% Triton; series mostly up to 114 µM
# Outline: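 20 mM phosphate pH 7.0 + 0.01% (detergent screen) or 0.0001% Triton X-100; 5.3 nM AmpC reagent; cpd preinc 15 min RT; nitrocefin (800 uM stock) to start; A480 q20 s × 4 min; Activity was normalised to no-enzyme and no-compound control wells.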
# Potency means the concentration at half of the fitted maximal effect; tags describe the fitted curve by direction and shape.
# Sequence of UniProt P00811 (P00811 whole entry, looked up): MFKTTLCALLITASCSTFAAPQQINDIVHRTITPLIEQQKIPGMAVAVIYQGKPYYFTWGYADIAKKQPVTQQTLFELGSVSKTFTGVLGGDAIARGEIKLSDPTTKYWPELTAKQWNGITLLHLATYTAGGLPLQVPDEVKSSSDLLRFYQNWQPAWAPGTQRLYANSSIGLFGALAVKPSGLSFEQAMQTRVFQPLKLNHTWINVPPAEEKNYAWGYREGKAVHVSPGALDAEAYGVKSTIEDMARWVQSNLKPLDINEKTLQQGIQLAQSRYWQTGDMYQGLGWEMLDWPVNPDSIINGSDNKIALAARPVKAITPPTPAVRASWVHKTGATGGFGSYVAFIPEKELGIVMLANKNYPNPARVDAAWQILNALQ
row,SMILES,Potency
1,CCOC(=O)c1sc(NC(=O)Nc2ccccc2)cc1C,inactive
2,COc1ccc(CCNC2=NCC(C)S2)cc1 (stereo not given),"inconclusive [inhibitor, full curve, poor fit]"
3,CCc1ccc(-n2cccc2/C=C2/C(=N)N3C(=NC2=O)SN=C3S(C)(=O)=O)cc1,"inconclusive [inhibitor, full curve, poor fit]"
4,COc1ccc([N+](=O)[O-])cc1NC(=O)CN(C)S(=O)(=O)c1ccccc1,"inconclusive [inhibitor, partial curve]"
5,CCOC(=O)c1ccc(/C=N/O)[n+](Cc2ccccc2)c1,"inconclusive [inhibitor, partial curve, poor fit]"
6,C=CCn1c(SCC(=O)NC23CC4CC(CC(C4)C2)C3)nc2cc(C(=O)O)ccc2c1=O,"inconclusive [inhibitor, full curve, poor fit]"
7,S=C(NCc1ccccc1)Nc1ccncc1,"inconclusive [inhibitor, full curve, poor fit]"
8,CC(C)(C)NC(=O)Cn1c(SCC(=O)NCc2cccs2)nc2ccccc21,"inconclusive [inhibitor, partial curve]"
9,Cc1ccccc1CCNC(=O)c1ccc(Cl)c(S(=O)(=O)N2CC(C)OC(C)C2)c1 (stereo not given),"inconclusive [inhibitor, full curve, poor fit]"
10,Cc1ccsc1C(=O)OCC(=O)N1CCN(C(=O)c2ccco2)CC1,inactive
11,CCC(C)c1ccc(NC(=O)c2c([N+](=O)[O-])cnn2CC)cc1 (stereo not given),"inconclusive [inhibitor, full curve]"
12,CCCCCCn1c(CN2CCCCC2CC)nc2c1c(=O)n(C)c(=O)n2C (stereo not given),"inconclusive [inhibitor, full curve]"
13,COC(=O)C1=C(C)N(Cc2ccccc2)C(=NCc2cc(OC)c(OC)c(OC)c2)N[C@H]1c1cccc(F)c1,"inconclusive [inhibitor, partial curve]"
14,CCOC(=O)c1cc(C#N)c(SCC(=O)c2cc(C#N)c(SC)nc2C)[nH]c1=O,"inconclusive [inhibitor, partial curve, poor fit]"
15,COc1ccc(CCNC(=O)CCn2c(=O)c3ccccc3n(CC(=O)Nc3ccc(C)cc3C)c2=O)cc1OC,inactive
16,COCCCNC(=O)Cn1nnc(-c2ccccc2NC(=O)c2ccc(F)cc2)n1,"inconclusive [inhibitor, full curve, poor fit]"
17,O=C(CSc1nccc(=O)[nH]1)N1CCOCC1,"inconclusive [inhibitor, full curve, poor fit]"
18,CCOc1ccc(-c2nc(Cn3c(=O)cc(C)c4c(C)nn(-c5ccc(C)cc5)c43)c(C)o2)cc1,inactive
19,Cc1ccc(-c2cn(-c3ccccc3F)c(=S)[nH]2)cc1,"inconclusive [inhibitor, partial curve]"
20,Cc1ccc(C(=O)Nc2ccccc2C(=O)NC(C(=O)O)C(C)C)cc1 (stereo not given),"inconclusive [inhibitor, full curve, poor fit]"
21,CCCn1c(C(C)NC(C)=O)nc2ccccc21 (stereo not given),"inconclusive [inhibitor, full curve, poor fit]"
22,C=CCN(CC=C)C(=S)NC(=O)/C=C/c1ccccc1,"inconclusive [inhibitor, full curve, poor fit]"

row,SMILES,Potency
1,CCCOC(=O)c1ccc(Cn2nnc3sc4c(c3c2=O)CCC(C)C4)cc1 (stereo not given),inactive
2,O=C(COC(=O)c1ccccc1)Nc1ccc(Cl)cc1C(=O)c1ccccc1,"inconclusive [inhibitor, partial curve]"
3,COC(=O)C1=C(c2ccc(Cl)c(C(F)(F)F)c2)C[C@@H]2CC[C@H]1N2C(=O)NCCNC(C)=O,inactive
4,CC1CCN(c2oc(/C=C/c3ccc(F)cc3)nc2C#N)CC1,inactive
5,COc1cccc(C(=O)Nc2cccc(-c3nc4ncccc4o3)c2C)c1,"inconclusive [inhibitor, full curve, poor fit]"
6,CSCCC(NS(=O)(=O)c1ccc(F)cc1)C(=O)NCc1ccc(S(N)(=O)=O)cc1 (stereo not given),"inconclusive [inhibitor, full curve, poor fit]"
7,COc1cccc(-c2nc(CS(=O)(=O)CC(=O)Nc3cccc(C)c3C)c(C)o2)c1,"inconclusive [inhibitor, full curve, poor fit]"
8,CC1(C)CC(=O)C2=C(C1)c1c(ccc3ccccc13)NC2c1ccc(Br)o1 (stereo not given),"inconclusive [inhibitor, single point]"
9,CCN1CCc2c(C#N)c(N3CCOCC3)nc(NCCO)c2C1,"inconclusive [inhibitor, full curve, poor fit]"
10,CCCCNS(=O)(=O)c1ccc(S(=O)(=O)N2CCC3(CC2)OCCO3)cc1,"inconclusive [inhibitor, full curve, poor fit]"
11,CCCCCCCCCn1c2c(c(=N)c3c1CCC3)CCC2,"inconclusive [inhibitor, partial curve, poor fit]"
12,O=S(=O)(NCCC1=CCCCC1)c1cccc2nsnc12,"inconclusive [inhibitor, single point]"
13,O=C(c1nc(-c2ccccc2)n(-c2ccccc2)n1)N1CCCCCC1,"inconclusive [inhibitor, full curve, poor fit]"
14,COc1ccc(CN(CCN2CCOCC2)C(=O)c2c(F)cccc2F)cc1OC,"inconclusive [inhibitor, partial curve]"
15,COC(=O)c1cccc(-n2cnnn2)c1,"inconclusive [inhibitor, full curve, poor fit]"
16,COc1ccc(C(=O)NC2CCCCC2)cc1S(=O)(=O)N1CCCC1,"inconclusive [inhibitor, full curve]"
17,COc1ccccc1C(=O)Nc1nnc(-c2ccc3c(c2)CCCC3)o1,inactive
18,CCOC(=O)c1sc(N2N=C(C)C(N=Nc3cccc(C)c3)C2=O)nc1C (stereo not given),inactive
19,Cc1noc(C)c1CSCC(=O)Nc1nc(-c2ccc(F)c(F)c2)cs1,inactive
20,CCN(CC)c1ccc(/C=C/C(=O)c2ccc(Br)cc2)cc1,inactive
21,O=C(CSc1nnc(-c2ccccc2Cl)o1)Nc1ccc2c(c1)OCCO2,"inconclusive [inhibitor, partial curve, poor fit]"
22,CSc1nc2[nH]c3c(c2c2nncn12)CC(C)(C)OC3,"inconclusive [inhibitor, full curve, poor fit]"

row,SMILES,Potency
1,O=C(Nc1ccccc1C(=O)N1CCOCC1)c1ccco1,"inconclusive [inhibitor, partial curve, poor fit]"
2,COc1cc(C(C(=O)NC2CCCCC2)N(C(=O)c2snc(C(N)=O)c2N)c2ccc(C)cc2)ccc1O (stereo not given),inactive
3,Cc1ccc(NC(=O)c2ccccc2NS(=O)(=O)c2ccc(Cl)s2)cc1,"inconclusive [inhibitor, full curve, poor fit]"
4,COc1cc(SC)ccc1C(=O)NCCOc1ccc(C)c(C)c1,"inconclusive [inhibitor, partial curve, poor fit]"
5,CCNCCNC(=O)c1c(O)c2c([nH]c1=O)CCCC2,"inconclusive [inhibitor, partial curve, poor fit]"
6,C=CCn1c(=N)n(CC(=O)c2ccccc2)c2ccccc21,"inconclusive [inhibitor, partial curve, poor fit]"
7,O=C(OCc1ccc(Br)cc1)c1cnc(Cl)c(Cl)c1,"inconclusive [inhibitor, single point]"
8,O=C(CSCc1cnn(-c2ccccc2)c1-n1cccc1)NCC1CCCO1 (stereo not given),"inconclusive [inhibitor, full curve, poor fit]"
9,O=C(Nc1ccncc1)OCc1ccccc1,inactive
10,O=C(O)CSc1cc(NS(=O)(=O)c2ccc(Cl)cc2)c2ccccc2c1O,inactive
11,Cc1nc(SCC(=O)Nc2ccccc2F)[nH]c(=O)c1Cc1ccccc1,inactive
12,Nc1c(N(Cc2ccco2)C(=O)c2ccc(Cl)cc2)c(=O)[nH]c(=O)n1Cc1ccccc1,inactive
13,CN(C)S(=O)(=O)c1ccc(C(=O)Nc2nc(-c3ccccc3)c(C(=O)c3ccccc3)s2)cc1,"inconclusive [inhibitor, full curve, poor fit]"
14,N/C(=N\OC(=O)/C=C/c1ccccc1)c1cccnc1,inactive
15,O=C(COc1ccccc1[N+](=O)[O-])Nc1ccc(-c2nc3ccccc3s2)cc1,inactive
16,O=C(CNC(=O)c1ccccc1)NCCc1nc2ccccc2[nH]1,"inconclusive [inhibitor, full curve, poor fit]"
17,CC(C(=O)N(C)C1CCS(=O)(=O)C1)N1C(=O)/C(=C/c2cccs2)SC1=S (stereo not given),"inconclusive [inhibitor, full curve, poor fit]"
18,C1CCc2c(nc3nnnn3c2NCC2CC2)C1,"inconclusive [inhibitor, partial curve]"
19,CC1(C)OC2CCN3C(C(O)COS3(=O)=O)C2O1 (stereo not given),"inconclusive [inhibitor, full curve, poor fit]"
20,Cc1ccc(S(=O)(=O)N(Cc2cc3ccccc3[nH]c2=O)CC2CCCO2)cc1 (stereo not given),"inconclusive [inhibitor, partial curve, poor fit]"
21,COc1ccc2nc(NC(=O)C3CCN(C(=O)c4ccco4)CC3)sc2c1,inactive
